Test results taken from IntAct's records for PubMed 34361094.

B1: G-protein coupled receptor 143 (Homo sapiens), P51810 (parent)
chain: MASPRLGTFCCPTRDAATQLVLSFQPRAFHALCLGSGGLRLALGLLQLLPGRRPAGPGSPATSPPASVRILRAAAACDLLGCLGMVIRSTVWLGFPNFVDSVSDMNHTEIWPAAFCVGSAMWIQLLYSACFWWLFCYAVDAYLVIRRSAGLSTILLYHIMAWGLATLLCVEGAAMLYYPSVSRCERGLDHAIPHYVTMYLPLLLVLVANPILFQKTVTAVASLLKGRQGIYTENERRMGAVIKIRFFKIMLVLIICWLSNIINESLLFYLEMQTDINGGSLKPVRTAAKTTWFIMGILNPAQGFLLSLAFYGWTGCSLGFQSPRKEIQWESLTTSAAEGAHPSPLMPHENPASGKVSQVGGQTSDEALSMLSEGSDASTIEIHTASESCNKNEGDPALPTHGDL

What was measured:
drd2_human DRD2, P14416 [1] = variants of: B1; conditions: with drd2_human DRD2, P14416
drd3_human DRD3, P35462 = variants of: B1; conditions: with drd3_human DRD3, P35462
drd2_human DRD2, P14416 [2] = variants of: B1; conditions: with drd2_human DRD2, P14416; remark: listed apart in the source

Row | Variant | effect of a mutation on the interaction (drd2_human DRD2, P14416 [1]) | effect of a mutation on the interaction (drd3_human DRD3, P35462) | effect of a mutation on the interaction (drd2_human DRD2, P14416 [2])
1 | L223A;L224A | with no effect | with no effect | with no effect
2 | W329A;E330A |  | with no effect | with no effect
